Measurements published in patent publication US20250170255A1 (Daiichi Sankyo, published 2025).

Assays:
[1] = target: T1, biotinylated human CD98 antigen (human, UniProt P08195 105-529, biotinylated with EZ-Link NHS-PEG4-Biotin (ELISA)); assay: ELISA pH 7.5 against pH 5.5
T1 construct: extracellular domain
T1 sequence (looked up): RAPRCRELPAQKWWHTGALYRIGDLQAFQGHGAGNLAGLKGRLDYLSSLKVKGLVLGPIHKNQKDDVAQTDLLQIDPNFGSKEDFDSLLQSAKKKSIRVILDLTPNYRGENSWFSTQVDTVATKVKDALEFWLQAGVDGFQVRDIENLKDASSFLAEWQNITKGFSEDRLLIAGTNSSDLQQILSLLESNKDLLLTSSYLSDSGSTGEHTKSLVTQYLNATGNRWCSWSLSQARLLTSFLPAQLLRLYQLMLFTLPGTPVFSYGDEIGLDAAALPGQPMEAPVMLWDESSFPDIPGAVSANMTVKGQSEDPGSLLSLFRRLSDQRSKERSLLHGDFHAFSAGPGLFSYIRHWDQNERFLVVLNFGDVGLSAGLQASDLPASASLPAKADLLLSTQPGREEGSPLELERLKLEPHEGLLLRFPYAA

[2] = target: T1, biotinylated human CD98 antigen; assay: ELISA, immobilised biotinylated human CD98 antigen, chemiluminescence; pH 5.5
[3] = target: T1, biotinylated human CD98 antigen; assay: ELISA, immobilised biotinylated human CD98 antigen, chemiluminescence; pH 7.5
[4] = target: T1, biotinylated human CD98 antigen; assay: ELISA with and without MMP1
[5] = target: T2, biotinylated amino terminal peptide of human GPRC5D (human, added C-terminal Lys carries biotin, K (Biotin)-NH2 (C-terminal amide)); assay: ELISA pH 7.5 against pH 5.5
T2 construct: Synthetic peptide (Peptide Institute); also called human GPRC5D antigen
T2 peptide: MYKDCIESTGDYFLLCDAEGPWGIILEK

EC50 ratio (neutral pH conditions/acidic pH conditions) [1]: 13.1 | EC50 (read off the curve) [2]: ~1 nM | EC50 (read off the curve) [3]: ~20 nM
B1: anti-CD98 masked antibody MhM8001 (antibody)
heavy: QVQLVQSGAEVKKPGASVKVSCKASGYAFSNYLIEWVRQAPGQGLEWMGVINPGSGVTNYNEKFKGRVTITADTSTSTAYMELSSLRSEDTAVYYCARAEAWFAYWGQGTLVTVSSASTKGPSVFPLAPSSKSTSGGTAALGCLVKDYFPEPVTVSWNSGALTSGVHTFPAVLQSSGLYSLSSVVTVPSSSLGTQTYICNVNHKPSNTKVDKRV[human IgG1 Fc not spelt out]
light: GENMWNDLDLVPLGILGGGGSGHHHGGHHHGGHHHGGSDIVMTQSPDSLAVSLGERATINCKSSQSLLYSSNQKNYLAWYQQKPGQPPKLLIYWASTRESGVPDRFSGSGSGTDFTLTISSLQAEDVAVYYCQRYYGYPWTFGQGTKVEIKRTVAAPSVFIFPPSDEQLKSGTASVVCLLNNFYPREAKVQWKVDNALQSGNSQESVTEQDSKDSTYSLSSTLTLSKADYEKHKVYACEVTHQGLSSPVTKSFNRGEC
notes: Mimotope and pH-responsive linker (3 His clusters) on the light chain; Full-length entries

EC50 ratio of binding intensity (without MMP1 / with MMP1) [4]: 239
B2: anti-CD98 masked antibody MhM1013 (antibody)
heavy: QVQLVQSGAEVKKPGASVKVSCKASGYAFSNYLIEWVRQAPGQGLEWMGVINPGSGVTNYNEKFKGRVTITADTSTSTAYMELSSLRSEDTAVYYCARAEAWFAYWGQGTLVTVSSASTKGPSVFPLAPSSKSTSGGTAALGCLVKDYFPEPVTVSWNSGALTSGVHTFPAVLQSSGLYSLSSVVTVPSSSLGTQTYICNVNHKPSNTKVDKRV[human IgG1 Fc not spelt out]
light: GNFYHQYPWPLEILGSGSGGGGSVLVPMAMMASGGSDIVMTQSPDSLAVSLGERATINCKSSQSLLYSSNQKNYLAWYQQKPGQPPKLLIYWASTRESGVPDRFSGSGSGTDFTLTISSLQAEDVAVYYCQRYYGYPWTFGQGTKVEIKRTVAAPSVFIFPPSDEQLKSGTASVVCLLNNFYPREAKVQWKVDNALQSGNSQESVTEQDSKDSTYSLSSTLTLSKADYEKHKVYACEVTHQGLSSPVTKSFNRGEC
notes: ZPZP lib-derived mimotope, MMP-cleavable, on the light chain; Full-length entries

EC50 ratio (neutral pH conditions/acidic pH conditions) [5]: 40.4
B3: anti-GPRC5D masked antibody MC3-9001 (antibody)
heavy: GETMSVFTRDYFTETPGGGGSGHHHGGHHHGGHHHGGSQVQLVQSGAEVKKPGASVKVSCKASGYTFTGYYMHWVRQAPGQGLEWMGRINPNSGGTNYAQKFQGRVTMTRDTSISTAYMELSGLRSDDTAVYYCASGSVRHPWGQGTLVTVSSASTKGPSVFPLAPSSKSTSGGTAALGCLVKDYFPEPVTVSWNSGALTSGVHTFPAVLQSSGLYSLSSVVTVPSSSLGTQTYICNVNHKPSNTKVDKRV[human IgG1 Fc not spelt out]
light: QPVLTQPPSASGTPGQRVTISCSGSRSNIGGNIVSWYQQFPGTAPRLLTYADNQRPSGVPDRFSGSKSGTSASLAISGLQSEDEADYYCAAWDDSLNGVVFGGGTKLTVLGQPKAAPSVTLFPPSSEELQANKATLVCLISDFYPGAVTVAWKADSSPVKAGVETTTPSKQSNNKYAASSYLSLTPEQWKSHRSYSCQVTHEGSTVEKTVAPTECS
notes: Mimotope and pH-responsive linker on the heavy chain; Full-length entries

One block for each binder: values may come before it.
